Source: the supplement of paper PMC11417369
± gives the standard deviation of the averaged measurements. The list shows a part of the results.

Each sequence was assayed on PfAP2-G AP2 domain (GST-tagged) (assay: gcPBM binding intensity (ln(normalized median fluorescence intensity)); higher = stronger DNA binding).
In short: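 Probes on an Agilent 4 × 180k array were primer-extended, double-stranded and 36 bp long, taken from intergenic genomic regions, with negative controls added. GST-tagged P. falciparum DNA-binding domains from E. coli, about 25 μg on average, were applied to the array for 1 h in 1× PBS containing 1% milk, 0.2 mg/ml BSA, 0.5% salmon testes DNA and 0.03% Triton X-100. Binding intensity, obtained after Alexa488 anti-GST antibody detection and a 488 nm scan, is the highest Masliner-normalised natural-log median intensity across replicate spots of either probe orientation.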
For “AACATTTTTAAATATATAAAAATATATATATATATA [XGTACX_negctrl_site551]”, the “gcPBM binding intensity (ln)” value was 9.74 ± 0.25. For “TTATATTTATGATACACACACGTATATTCACATACA [CACACA_site6354]”, the “gcPBM binding intensity (ln)” value was 10.3 ± 0.16. For “ATTTTTTTTTTTTCCTTACACACATATTTCATTTTA [CACACA_site748]”, the “gcPBM binding intensity (ln)” value was 10.1 ± 0.2. With “TCTTTATATATATATATATGTGTGAATGTTAAGTAT [XGTACX_negctrl_site135]” the “gcPBM binding intensity (ln)” value was 10.1 ± 0.21. In the case of “AAATTGTCTGCATATAGTACATAAATATATTAATAT [XGTACX_site4557]”, the “gcPBM binding intensity (ln)” value is reported as 10.9 ± 0.57. For ATATATATATATATAGTGCATAATGTTTTAATAGAT, the “gcPBM binding intensity (ln)” value was 10.1 ± 0.27. “TATAATATATTTATATGTACTTATTTATTTATATAT [XGTACX_site6519]” was tested, and the “gcPBM binding intensity (ln)” value was 11.4 ± 0.95. For “GAGTTTATTCTTTTTATACACACCTTATTTGATTAA [CACACA_site735]”, the “gcPBM binding intensity (ln)” value was 10.03 ± 0.057. In the case of “TATTATTTTATGAGACATAAAAAAAAAAAAAAAAAA [CACACA_negctrl_site1534]”, the “gcPBM binding intensity (ln)” value is reported as 9.81 ± 0.48. With “AAGTATTATTATAAGACACACATGTATATAAGTATA [CACACA_site1479]” the “gcPBM binding intensity (ln)” value was 10.2 ± 0.16. In the case of “TTAAGTATTTTACGTACACACTTATAAATGTACAGG [CACACA_site6012]”, the “gcPBM binding intensity (ln)” value is reported as 11.7 ± 0.93. With “CTATTAAAAAAATTATGTACACAACGTCTCTATATA [XGTACX_site4813]” the “gcPBM binding intensity (ln)” value was 11.6 ± 0.88. With “TACATTTTTATTTTTACACACATATATATATATATA [CACACA_site1021]” the “gcPBM binding intensity (ln)” value was 10.2 ± 0.28. “ATAAAAATGGATGAATATAAAAAAAAAAAAATATAT [CACACA_negctrl_site182]” was tested, and the “gcPBM binding intensity (ln)” value was 9.64 ± 0.071. With “GAATATATAAGAACAAATATGGCTTAGAAAAAAAAA [TGCATGCA_negctrl_site451]” the “gcPBM binding intensity (ln)” value was 9.89 ± 0.071. In the case of “TACAAAAGTTAAACATGTACTTAATTATATGTTTTT [XGTACX_site2852]”, the “gcPBM binding intensity (ln)” value is reported as 11.1 ± 0.66. “CTAAAAATTTTAATTGCACACCACGTTGGACTATTT [CACACA_site1489]” was tested, and the “gcPBM binding intensity (ln)” value was 10.7 ± 0.47. For “TTACACTAAATATGTTCACACATTTTTTCCATCATA [CACACA_site4647]”, the “gcPBM binding intensity (ln)” value was 10.06 ± 0.042. In the case of TATAAGGCAATAATAGTGCACTAAGATATATAATGA, the “gcPBM binding intensity (ln)” value is reported as 10.3 ± 0.24. For “ATATATTACAAATGGAGTACTAAAAATATTCTATAT [XGTACX_site6669]”, the “gcPBM binding intensity (ln)” value was 11.5 ± 0.87. “TCAAGTTTATATTAACTATTTATGAAAAAAAAAAGA [CACACA_negctrl_site902]” was tested, and the “gcPBM binding intensity (ln)” value was 9.72 ± 0.21. In the case of “CCCACAGACGGACACACACACACATATATATATATA [CACACA_site4352]”, the “gcPBM binding intensity (ln)” value is reported as 11.6 ± 0.93. In the case of “TATATATATGGGTTTACACACAATAATGAATTAAAA [CACACA_site915]”, the “gcPBM binding intensity (ln)” value is reported as 9.99 ± 0.11. With “CCCATGCATTTTTGCACACACATATATTTATAAATA [CACACA_site6785]” the “gcPBM binding intensity (ln)” value was 10.3 ± 0.3. In the case of “TGCAAATTTAACAAAAAAAAAAAAAAAAAAAAAAAA [GTGCAC_negctrl_site64]”, the “gcPBM binding intensity (ln)” value is reported as 9.47 ± 0.39. In the case of “TCTACTACTTAATGGAGTACTAGCTTCATAATATTA [XGTACX_site7030]”, the “gcPBM binding intensity (ln)” value is reported as 11.3 ± 0.98. In the case of “TGAACACAGACAAATACACACAAAAAAAATAAATAA [CACACA_site4298]”, the “gcPBM binding intensity (ln)” value is reported as 10.1 ± 0.14. “TATTATGTATAAAGAAGTACTTTTTTTTTTTTTTTC [XGTACX_site201]” was tested, and the “gcPBM binding intensity (ln)” value was 11.3 ± 0.82. In the case of “AAAAAACAAAAACACACACACACATATATATATATA [CACACA_site3654]”, the “gcPBM binding intensity (ln)” value is reported as 9.93 ± 0.29. In the case of “ATCACTAACATGTGTTGTACATAAAATTTGTTTGTT [XGTACX_site2207]”, the “gcPBM binding intensity (ln)” value is reported as 11.4 ± 0.82. For “TTAACTTTTATATAGTGTACAAATAAATGCATACAG [XGTACX_site5958]”, the “gcPBM binding intensity (ln)” value was 11.1 ± 0.73. “TTATTATTTAACATGTGGACACAAAAATTTAAGGGT [XGTACX_site4638]” was tested, and the “gcPBM binding intensity (ln)” value was 11.4 ± 0.82. For ATGTTTTAATGAGGTTTGCACTATATTTTAATGAAC, the “gcPBM binding intensity (ln)” value was 10.08 ± 0.014. “AACATATATACAGTAACACACACAAAAAAATATGAA [CACACA_site9323]” was tested, and the “gcPBM binding intensity (ln)” value was 10.2 ± 0.21. “GATTATTTAAAATATACATGCGCGCACATATGCATA [TGCATGCA_site630]” was tested, and the “gcPBM binding intensity (ln)” value was 10.5 ± 0.19. “TGCATTTTCCTATTTGCATGCAATTAAAATATAGAA [TGCATGCA_site862]” was tested, and the “gcPBM binding intensity (ln)” value was 10 ± 0.32. With “AAAAGAATTTGAAGTCGTACAATATCTATTATATGA [XGTACX_site8275]” the “gcPBM binding intensity (ln)” value was 11.2 ± 0.78. For “TTTTACAATAACAATACACACTATAATATATATATA [CACACA_site4893]”, the “gcPBM binding intensity (ln)” value was 10 ± 0.2. In the case of “CATATATATAAATACACACACACACCCCTTATAATT [CACACA_site4064]”, the “gcPBM binding intensity (ln)” value is reported as 10.5 ± 0.3. In the case of “TAGGAGCCGAAACACACACACAAAAAAAAAAAAAAA [CACACA_site1731]”, the “gcPBM binding intensity (ln)” value is reported as 9.82 ± 0.45. With “AAGATAAAATTATGCACACATACGAATAATTTTAAA [CACACA_site1705]” the “gcPBM binding intensity (ln)” value was 10 ± 0.14. “TTTCTCAATTCTTAGAGTACATAAATAAAAAAAAAA [XGTACX_site7639]” was tested, and the “gcPBM binding intensity (ln)” value was 11.4 ± 0.95. In the case of “ATATAATATACTTATTGTACTTATTTAAAATACTAA [XGTACX_site4266]”, the “gcPBM binding intensity (ln)” value is reported as 11.3 ± 1. With “AAAAAATGGCTAGTTTGTACACAAAAGTTATTGCAT [XGTACX_site5381]” the “gcPBM binding intensity (ln)” value was 11.1 ± 0.67.
